According to PubChem BioAssay AID1476 (National Center for Advancing Translational Sciences (NCATS), 2009):
Several values for one entry are separate records, joined by “and”; a condition that tells them apart may be missing. Equal values may be shown once. Hit rate of the full screen: of about 200,000 compounds, about 4,500 (2.2%) were called active. This list was built around the results that the source calls inconclusive (neither active nor inactive); the mix of calls is not that of the screen. The call rests on the fitted dose curve; in most records, active means well fitted inhibition curve with a large enough effect; inconclusive means small, poorly fitted or top-dose-only effect, or effect the other way; inactive means flat fitted curve, though single readings scatter. Potencies of inconclusive entries are doubtful fits and often do not repeat.

Target: Cruzipain (Trypanosoma cruzi) (UniProt P25779)
Chain of UniProt P25779 (P25779 whole entry, looked up): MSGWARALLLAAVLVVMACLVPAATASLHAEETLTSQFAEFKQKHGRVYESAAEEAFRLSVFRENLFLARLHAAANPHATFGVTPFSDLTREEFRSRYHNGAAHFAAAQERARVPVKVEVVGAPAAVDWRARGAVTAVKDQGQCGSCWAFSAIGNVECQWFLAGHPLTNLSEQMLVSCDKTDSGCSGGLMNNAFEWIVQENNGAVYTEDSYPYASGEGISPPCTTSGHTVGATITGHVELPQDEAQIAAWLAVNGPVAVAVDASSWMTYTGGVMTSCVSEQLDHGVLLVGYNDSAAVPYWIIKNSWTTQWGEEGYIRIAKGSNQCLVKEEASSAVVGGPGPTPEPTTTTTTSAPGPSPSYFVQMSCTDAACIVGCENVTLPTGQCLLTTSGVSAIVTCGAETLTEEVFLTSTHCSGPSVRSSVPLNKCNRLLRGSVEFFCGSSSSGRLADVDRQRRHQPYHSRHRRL
Test: qHTS Assay for Promiscuous and Specific Inhibitors of Cruzain (without detergent); further: nearly all actives have a fitted effect of over 40% in size;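 on max response, negative = inhibition: plate controls were enzyme without inhibitor for no effect and buffer without enzyme for full effect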
Details: purified cruzain, Z-FR-AMC fluorescence, no detergent
In short: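 Detergent-free condition (0.00005% Triton X-100) in acetate buffer pH 5.5 with DTT. 1.5 nM enzyme and compound were pre-mixed 15 min, then 2 uM Z-FR-AMC substrate added; reaction progress from fluorescence change between first and third reads (60 s).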
Potency means the concentration at half of the fitted maximal effect; tags describe the fitted curve by direction and shape.

| Compound | max response, negative = inhibition | Potency |
| --- | --- | --- |
| CCOC(=O)c1ccc(NC(=O)CC2Nc3cc(C)c(C)cc3NC2=O)cc1 (stereo not given) | inactive: -7.58% |  |
| COCCCNC(=O)c1ccc(Cn2c(=O)c3ccccc3n(Cc3ccc(C)cc3)c2=O)cc1 |  | inconclusive: 31.6 µM [activator, partial curve] |
| S=C(NCCC(c1ccccc1)c1ccccc1)Nc1cccc(Cl)c1 |  | active: 15.8 µM |
| CC(=O)N1CCc2c(sc3c2c(=O)n(-c2ccccc2)c(=O)n3Cc2ccccc2Cl)C1 |  | inconclusive: 39.8 µM [activator, single point] |
| Cc1ccc(C2Nc3ccccc3-n3c(-c4ccccc4)c4c(=O)n(C)c(=O)n(C)c4c32)cc1 (stereo not given) |  | inconclusive: 25.1 µM [activator, partial curve] |
| COc1cccc(-c2nc(N(C)Cc3ccco3)c3ccccc3n2)c1 | inactive: -11.1% |  |
| COc1ccc(NC(=O)c2nn(C)c3c2CSc2ccc(C)cc2-3)cc1OC |  | inconclusive: 31.6 µM [activator, single point] |
| COC(=O)c1sccc1S(=O)(=O)N(CC(=O)Nc1cc(C)cc(C)c1)c1ccc(Cl)cc1 |  | inconclusive: 39.8 µM [inhibitor, single point] |
| CCOc1ccc(-n2nc3ccc(NC(=O)COc4ccccc4)cc3n2)cc1 | inactive: -0.118% |  |
| CCc1ccc(NC(=O)Cn2c(=O)n(CCC(=O)NCCc3ccc(OC)c(OC)c3)c(=O)c3ccccc32)cc1 | inactive: -14.5% |  |
| CC(C)c1ccc(CNCCSc2nnnn2-c2ccccc2)cc1 | inactive: 12.9% |  |
| CCOC(=O)c1cc(-c2cccc(C(F)(F)F)c2)nc2nc(SC)[nH]c(=O)c12 |  | inconclusive: 20 µM [activator, single point] |
| O=c1c2ccccc2nc(-c2ccoc2)n1-c1ccccc1 |  | inconclusive: 31.6 µM [inhibitor, single point] |
| CN1CCN(C2(CNC(=O)COc3ccc(C(C)(C)C)cc3)CCCCC2)CC1 | inactive: -0.272% |  |
| Cc1nc(NS(=O)(=O)c2ccc(Br)cc2)c2c3c(sc2n1)CCC3 |  | inconclusive: 39.8 µM [activator, single point] |
| COc1ccccc1[C@@H]1C(c2ccc(F)cc2)=NN(c2ccccc2)[C@H]1C(=O)N1CCOC1=O |  | inconclusive: 25.1 µM [inhibitor, single point] and inconclusive: 39.8 µM [inhibitor, single point] |
| CC(C)(C)C1CCc2c(C(=O)NNC(=O)CCCC(=O)O)csc2C1 (stereo not given) |  | inconclusive: 39.8 µM [activator, single point] |
| CCOc1ccc(C(=O)NCCc2csc(-c3cccnc3)n2)cc1 | inactive: -0.802% |  |
| CCOC(=O)c1c(-c2ccccc2)oc2cc(Br)c(OCc3ccccc3)cc12 | inactive: 3.47% |  |
| CCc1nnc(SCc2nc(-c3cccc(C)c3)oc2C)c2cc3sc(C)cc3n12 | inactive: -17.8% |  |
| Clc1ccc2nc(N3CCN(c4ccccc4)CC3)sc2c1 |  | active: 20 µM |
| COC(=O)c1[nH]c2ccc(C)cc2c1NC(=O)CN1CCN(C(=O)c2ccccc2)CC1 |  | inconclusive: 39.8 µM [activator, single point] |

| Compound | max response, negative = inhibition | Potency |
| --- | --- | --- |
| O=C(COc1ccccc1Cl)Nc1nc(-c2ccc(F)cc2)ns1 |  | inconclusive: 31.6 µM [inhibitor, single point] |
| COc1cccc(NC(=O)C2CCN(S(=O)(=O)c3c(C)noc3/C=C/c3cccs3)CC2)c1 |  | active: 15.8 µM |
| Cc1ccc(N2CC(NC(=O)C3CCCC3)CC2=O)cc1C (stereo not given) | inactive: 9.28% |  |
| COC(=O)Cn1c(C(=O)N(C)C)cc2c1C[C@H]1CN(C(=O)c3ccccc3)[C@@](Cc3ccc(OC)cc3)(C(=O)OC)[C@@H]21 |  | inconclusive: 15.8 µM [activator, partial curve] |
| CN(c1ccccc1)S(=O)(=O)c1cccc(NC(=O)Cc2c(F)cccc2Cl)c1 |  | inconclusive: 39.8 µM [inhibitor, single point] |
| COc1cccc(-c2csc(N3CCN(CC(=O)Nc4ccc5c(c4)OCO5)CC3)n2)c1 |  | inconclusive: 25.1 µM [inhibitor, single point] |
| Cc1ccc(-c2cc(C(=O)Nc3ccc(S(=O)(=O)Nc4nc(C)cc(C)n4)cc3)c3ccccc3n2)cc1 |  | inconclusive: 25.1 µM [activator, single point] |
| COCCNC(=O)C(c1cccs1)N(CCc1ccccc1)C(=O)Cn1nnc2ccccc21 (stereo not given) |  | inconclusive: 25.1 µM [activator, single point] |
| O=C(NCc1cccc(F)c1)c1ccc2nc(CCc3ccccc3)oc2c1 | inactive: 11% |  |
| O=C(CN1CCN(C(=O)c2ccco2)CC1)Nc1cc(C(F)(F)F)ccc1Cl |  | inconclusive: 39.8 µM [activator, single point] |
| Nc1nc(NC(=O)c2cccc(S(=O)(=O)N3CCCCCC3)c2)nc(-c2ccccc2)n1 |  | active: 20 µM |
| O=C(Nc1cccc(NC(=O)c2ccc(Br)cc2)c1)c1ccccc1 |  | inconclusive: 31.6 µM [inhibitor, single point] |
| O=C(NCCCN1CCCC1=O)c1cc(NS(=O)(=O)c2ccc(F)cc2)cc(NS(=O)(=O)c2ccc(F)cc2)c1 |  | inconclusive: 39.8 µM [activator, single point] |
| CC1(C)C2CC=C(/C=N/NC(=O)c3ccc(Cl)cc3)C1C2 (stereo not given) |  | inconclusive: 12.6 µM [inhibitor, single point] |
| CCOC(=O)c1csc(Nc2nc3ccc(F)cc3s2)n1 |  | inconclusive: 39.8 µM [activator, single point] |
| COCCn1c(C)cc(C(=O)CSc2nc3ccccc3c(=O)n2Cc2ccco2)c1C |  | inconclusive: 39.8 µM [activator, single point] |
| COc1ccccc1OC(C)C(=O)N1CCC(c2nc3ccccc3s2)CC1 (stereo not given) |  | inconclusive: 31.6 µM [activator, single point] |
| [S-]C(=Nc1ccc(Cl)cc1)N[n+]1ccccc1 |  | active: 7.94 µM |
| CCOC(=O)C1=C(N)OC2=C(C(=O)CCC2)C12C(=O)N1c3c(ccc(C)c32)C(C)=CC1(C)C (stereo not given) |  | inconclusive: 25.1 µM [activator, partial curve] |
| CCc1cccc(NC(=O)Cn2nc(C)c3sc4ccccc4c3c2=O)c1 |  | inconclusive: 39.8 µM [activator, single point] |
| CCOc1ccc2nc(Nc3nc(CSc4nnnn4-c4ccccc4)cc(=O)[nH]3)nc(C)c2c1 |  | inconclusive: 12.6 µM [activator, partial curve] |
| COc1ccc(OC)c(/C=C2\S/C(=N/NC(=O)c3ccc4ccccc4c3)NC2=O)c1 |  | inconclusive: 12.6 µM [inhibitor, partial curve] |

| Compound | max response, negative = inhibition | Potency |
| --- | --- | --- |
| COC(=O)c1oc2ccc(Br)cc2c1NC(=O)c1ccccc1 |  | active: 12.6 µM |
| CC1CCN(S(=O)(=O)c2ccc3c(c2)c(=O)c(C(=O)NCc2cccs2)cn3C)CC1 |  | inconclusive: 12.6 µM [activator, partial curve] |
| CC(C)OC(=O)c1ccc(NC(=O)CSc2nc(-c3cccs3)cc(C(F)(F)F)n2)cc1 | inactive: 1.88% |  |
| O=C(NCc1ccco1)C(Cc1ccccc1)N1C(=O)C2C3C=CC(C3)C2C1=O (stereo not given) | inactive: -29.9% |  |
| Cc1ccc(C(C)n2cc(C(=O)NCc3ccncc3)nn2)cc1 (stereo not given) | inactive: -1.51% |  |
| COc1ccc(C(C)=O)cc1CSc1nc(NCc2ccccc2)c2ccccc2n1 | inactive: 3.98% |  |
| CC(CNC(=O)c1cc2cc(S(=O)(=O)N3CCCCC3)ccc2n1C)c1ccccc1 (stereo not given) | inactive: -5.17% |  |
| COc1ccc(/C=N/NC(=O)CCSc2nc3ccccc3s2)cc1OC |  | inconclusive: 39.8 µM [activator, single point] |
| O=C(Cn1c(=O)n(Cc2ccc3c(c2)OCO3)c(=O)c2ccccc21)N1CCCc2ccccc21 |  | active: 31.6 µM |
| Cn1c(N2CCOCC2)nc2c1c(=O)n(Cc1ccc(Cl)c(Cl)c1)c(=O)n2C |  | inconclusive: 31.6 µM [activator, single point] |
| COc1ccc(-c2cc(C(=O)Nc3c(C)nn(Cc4ccccc4C)c3C)no2)cc1 | inactive: -8.1% |  |
| COc1cc(NS(=O)(=O)c2cc3[nH]c(=O)[nH]c3cc2C)cc(OC)c1OC |  | inconclusive: 0.158 µM [activator, full curve, poor fit] |
| Cc1cccc(C(=O)Nc2cc(-c3ccccc3F)nn2-c2ccccc2)c1 | inactive: -8.01% |  |
| Clc1ccc2[nH]c3c(NCCCN4CCOCC4)ncnc3c2c1 |  | active: 12.6 µM |
| O=C(Nc1ccc2c(c1)OCCO2)c1cc2sccc2n1Cc1ccccc1 |  | inconclusive: 31.6 µM [inhibitor, single point] |
| Cc1cc(C)cc(N(CC(=O)N2CCn3c2nc2ccccc23)S(=O)(=O)c2c(C)noc2C)c1 |  | inconclusive: 39.8 µM [activator, single point] |
| CCc1ccc(CNC(=O)C2COc3ccccc3C2)cc1 (stereo not given) | inactive: -0.507% |  |
| CC(C(=O)Nc1sc2c(c1C(=O)NCc1ccco1)CCCC2)N1C(=O)c2ccccc2C1=O (stereo not given) |  | inconclusive: 39.8 µM [inhibitor, single point] |
| N#Cc1cc2ccccc2nc1SCC(=O)Nc1ccc(S(=O)(=O)N2CCCC2)cc1 |  | inconclusive: 39.8 µM [inhibitor, single point] |
| c1csc(C2=Nn3c(nnc3-c3ccncc3)SC2)c1 |  | inconclusive: 39.8 µM [inhibitor, single point] |
| COc1ccc2nc(-n3c(O)c(C4=c5ccccc5=NC4=O)[nH]c3=S)sc2c1 |  | inconclusive: 10 µM [inhibitor, partial curve] |
